# Laboratory results taken from publication PMC4336329 (PLoS ONE, 2015).
# Hit rate of the full screen: of about 310,000 compounds, about 14,000 (4.5%) showed an effect of 50% or more. The effect is printed as a negative number. This is one part of the list.
# Biological target: human ether-à-go-go-related gene (hERG) potassium channel (human, UniProt Q12809)
# Assay: primary screen, population patch clamp on CHO cells stably expressing hERG
# 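Note: peak tail current of the secondary pulse compared with the same well before compound.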
# Sequence of human ether-à-go-go-related gene (hERG) potassium channel (Q12809 whole entry, looked up): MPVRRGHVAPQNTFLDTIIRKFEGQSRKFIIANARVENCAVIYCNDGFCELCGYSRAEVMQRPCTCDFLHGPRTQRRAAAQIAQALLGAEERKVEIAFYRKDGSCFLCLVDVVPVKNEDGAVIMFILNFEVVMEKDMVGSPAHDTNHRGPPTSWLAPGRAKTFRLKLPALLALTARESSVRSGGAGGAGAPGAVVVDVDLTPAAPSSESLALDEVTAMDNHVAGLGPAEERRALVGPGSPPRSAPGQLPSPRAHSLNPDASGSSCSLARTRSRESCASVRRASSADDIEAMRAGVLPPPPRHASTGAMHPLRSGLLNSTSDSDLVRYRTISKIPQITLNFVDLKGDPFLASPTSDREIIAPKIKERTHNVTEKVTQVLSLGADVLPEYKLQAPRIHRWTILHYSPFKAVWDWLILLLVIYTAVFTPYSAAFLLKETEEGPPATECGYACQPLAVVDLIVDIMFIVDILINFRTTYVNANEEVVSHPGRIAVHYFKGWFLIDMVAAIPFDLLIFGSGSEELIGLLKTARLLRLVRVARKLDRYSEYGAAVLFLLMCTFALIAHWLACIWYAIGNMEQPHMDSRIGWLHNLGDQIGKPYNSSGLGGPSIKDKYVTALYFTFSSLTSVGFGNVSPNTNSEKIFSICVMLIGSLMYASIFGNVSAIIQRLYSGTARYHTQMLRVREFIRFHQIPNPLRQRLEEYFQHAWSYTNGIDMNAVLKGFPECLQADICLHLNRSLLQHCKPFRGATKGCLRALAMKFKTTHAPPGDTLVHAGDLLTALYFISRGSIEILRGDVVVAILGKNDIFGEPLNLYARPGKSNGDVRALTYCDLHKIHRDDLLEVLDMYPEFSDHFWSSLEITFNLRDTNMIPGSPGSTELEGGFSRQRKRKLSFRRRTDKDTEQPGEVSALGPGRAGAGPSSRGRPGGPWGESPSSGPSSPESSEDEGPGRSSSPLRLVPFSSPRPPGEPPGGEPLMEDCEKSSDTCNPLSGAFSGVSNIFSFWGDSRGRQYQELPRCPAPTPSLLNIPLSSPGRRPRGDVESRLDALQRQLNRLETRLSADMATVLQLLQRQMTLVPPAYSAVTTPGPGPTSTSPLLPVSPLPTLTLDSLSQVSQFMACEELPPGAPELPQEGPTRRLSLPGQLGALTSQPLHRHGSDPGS
row,SMILES,"hERG current change (%, negative = inhibition) at 10uM [%]"
1,CC1CC(C)CN(CC(=O)N2CCCc3c2c(=O)oc2ccc(OCc4ccccc4)cc32)C1 (centres unmarked),-4.71
2,c1ccc(-n2nnnc2NCCc2c[nH]c3ccccc23)cc1,5.85
3,COC(=O)c1nn(-c2ccc3c(c2)OCO3)cc1O,1.71
4,Cc1ccc(NC(=O)C2CCCN(S(=O)(=O)c3cccnc3)C2)c(C)c1 (centres unmarked),9.18
5,CC(=O)Nc1ccc(S(=O)(=O)N2CCC(=O)Nc3ccccc32)cc1,21.2
6,CN(C)CCSc1nc(-c2ccccc2)nc2c1CCC2,-61.3
7,Cc1ccc(-c2csc(N(CCCN3CCOCC3)C(=O)c3ccco3)n2)cc1.Cl,-19.1
8,Cc1cc(C)c2c(=O)[nH]c(SCC(=O)N(C)C)nc2n1,-0.697
9,CCN1CCN(Cc2ccc(NC(=O)c3ccc(C)c(NC(=O)c4cccc5[nH]ccc45)c3)cc2C(F)(F)F)CC1,1.17
10,CC1(C)Cc2nc3sc4c(OCc5ccccc5)ncnc4c3cc2CO1,2.14
11,Cc1c(C(=O)NC2CCCC2)oc2ccccc12,-21.5
12,CCOC(=O)Cc1csc(SCC(=O)Nc2ccc3[nH]c(=O)[nH]c3c2)n1,20.4
13,COc1cc(O)c(C(C)=O)cc1OC,19.1
14,O=C(CCCOc1ccccc1)NCC1CCCO1 (centres unmarked),3.66
15,CCn1c(SCC(=O)c2ccc(NS(=O)(=O)c3ccccc3)cc2)nnc1-c1cccs1,0.372
16,CCOC(=O)C1CCN(C(=O)C2(NC(=O)Nc3cccc(F)c3)CCCCC2)CC1,12.4
17,CCCc1cc(NC(=O)CCl)n(-c2ccccc2)n1,-3.54
18,COc1c(N2CCNC(C)C2)c(F)cc2c(=O)c(C(=O)O)cn(C3CC3)c12 (centres unmarked),4.21
19,COc1ccc(-c2nc(CS(=O)CC(=O)NC3CCC(C)CC3)c(C)o2)cc1OC (centres unmarked),-34.6
20,COc1ccc(N(C)C(=O)c2ccc3snnc3c2)cc1,-0.703
21,COc1cccc(C2=CC(=O)C[C@H](c3ccc(Cl)cc3)C2)c1,15.4
22,CC(NC(=O)CSc1ccccc1C(=O)O)C1CC2CCC1C2 (centres unmarked),20.6
23,O=C(CSc1nnc(Cc2ccccc2)o1)Nc1ccc2c(c1)OCO2,10.5

row,SMILES,"hERG current change (%, negative = inhibition) at 10uM [%]"
1,CN(C)CCNC(=O)c1cc2c(=O)n(C)c3ccccc3c2n1C,2.09
2,O=C1N(CN2C(=O)C3(OCCO3)c3ccccc32)c2ccccc2C12OCCO2,17.1
3,C/C(=N\NC(=O)c1cc(C)nc2ccc(C)cc12)c1ccncc1,10.8
4,COc1ccc(N=C2SC(C(=O)N3CCN(c4ccccc4)CC3)CC(=O)N2C)cc1 (centres unmarked),-13
5,Cc1ccc2cc(C#N)c(N3CCCN(C(=S)NCCCN(C)C)CC3)nc2c1,-11.4
6,CN(C)CCCOc1cccc(Cl)c1.O=C(O)C(=O)O,-19.5
7,COc1cccc(CNC(=O)N2CCN(c3ccccc3)CC2)c1,-6.56
8,N#C/C(=C/c1ccc(CNS(=O)(=O)c2ccccc2)o1)C(N)=O,11.2
9,Cn1nnc(NC(=O)/C=C/c2ccco2)n1,8.33
10,CCOC(=O)C1CSC(CC(=O)Nc2ccc(Cl)c(Cl)c2)C(=O)N1 (centres unmarked),-24.2
11,Cl.N#CCCN(/N=C/c1cccnc1)C1=NS(=O)(=O)c2ccccc21,-22.3
12,CCC(C)NC(=O)CSc1nc2scc(-c3ccccc3)c2c(=O)[nH]1 (centres unmarked),-1.07
13,COCCN(C(=O)C1CCCO1)c1c(N)n(CC(C)C)c(=O)[nH]c1=O (centres unmarked),5.16
14,CC(C)c1ccc(NC(=O)N2C[C@H]3C[C@@H](C2)c2cccc(=O)n2C3)cc1,7.01
15,Cc1cccc(NC(=O)CCN2CCCCC2)c1.Cl,-10.9
16,C1CCC(NC2CCCCC2)CC1,17.1
17,Cc1ccc(OCC(=O)Nc2ccc(S(=O)(=O)Nc3ccccn3)cc2)c(C)c1,12.8
18,CCOC(=O)c1c(CSc2nc(C)cc(C)c2C#N)n(C)c2cc(Br)c(OC(C)=O)cc12,8.76
19,C[C@H](NC(=O)OC(C)(C)C)c1nnc(SCC(N)=O)o1,3.45
20,COC(=O)c1sccc1S(=O)(=O)NCc1ccc(S(N)(=O)=O)cc1,2.03
21,O=C(O)CS(=O)(=O)CC(=O)O,14.2
22,CCOC(=O)c1c(NC(C)=O)sc2c(O)c(Br)ccc12,6.88
23,O=C(N[C@@H](Cc1ccc(O)cc1)C(=O)O)c1ccc(C(F)(F)F)cc1,13.5

row,SMILES,"hERG current change (%, negative = inhibition) at 10uM [%]"
1,Cc1ccc(C(=O)N/C(=C/c2ccco2)C(=O)Nc2cccc(C)c2)cc1,-16.7
2,CCOC(=O)CSc1nnc(NC(=O)c2cc([N+](=O)[O-])cc([N+](=O)[O-])c2)s1,-8.83
3,O=C(CSc1nccc(=O)[nH]1)N1CCN(c2ccccc2)CC1,14.8
4,COc1ccc(CCC(C)Nc2cccc(F)c2)cc1 (centres unmarked),-4.46
5,COc1cccc(C(=O)NCCNC(=O)c2ccco2)c1.O=C(O)C(=O)O,12.3
6,Cc1cc(C)nc(NS(=O)(=O)c2ccc(NC(=O)c3ccco3)cc2)n1,0.81
7,Cc1ccnc(SC2CC(=O)N(c3ccc(C(C)C)cc3)C2=O)n1 (centres unmarked),0.452
8,C=C1CCN([C@H](C(=O)NCc2ccc(Cl)cc2)C(C)C)S(=O)(=O)c2ccccc21,-6.02
9,COc1cccc(C2CC(C(F)(F)F)n3ncc(C(=O)O)c3N2)c1 (centres unmarked),19.3
10,COc1ccc(N(C(=O)COc2ccccc2OC)S(=O)(=O)c2ccc(C)cc2)cc1,5.52
11,COc1ccc(C(=O)NNc2ccccc2)cc1,-3.28
12,C[C@]12CCC(=O)C[C@@H]1CC[C@@H]1[C@@H]2CC[C@]2(C)[C@@H](C(=O)COC(=O)CCC(=O)O)CC[C@@H]12,20.4
13,O=C(NNC(=O)c1sccc1-n1cccc1)c1ccc(F)cc1,-5.95
14,O=C(Cn1cc(C(F)(F)F)ccc1=O)N1CCN(S(=O)(=O)c2ccc(Cl)cc2)CC1,-8.9
15,Cl.NCCCC(=O)N1c2ccccc2Sc2ccccc21,-15.8
16,Cc1nnc(NC(=O)CSCc2c(C)noc2C)s1,-2.88
17,COCC(C)n1c(SCC(=O)N(C)C2CCS(=O)(=O)C2)nc2ccccc2c1=O (centres unmarked),9.86
18,Cc1c(N2C(=O)CSC2c2ccccc2)c(=O)n(-c2ccccc2)n1C (centres unmarked),18.5
19,O=C(NCc1ccco1)c1ccccc1SCC(=O)N1CCCC1,-4.74
20,COc1ccc(NC(=O)COc2coc(CN3CCN(c4ccccc4)CC3)cc2=O)cc1,11.5
21,COCCNC(=O)COC(=O)/C=C/c1c(C)nn(Cc2ccc(Cl)cc2Cl)c1Cl,-9.14
22,CCn1c2ccccc2c2cc(NC(=O)Cc3ccc(S(=O)(=O)N4CCOCC4)s3)ccc21,-2.48
23,Cc1ccsc1C(=O)N1CCN(S(=O)(=O)c2cccc(F)c2)CC1,-8.65

row,SMILES,"hERG current change (%, negative = inhibition) at 10uM [%]"
1,COc1ccc(N2C(=O)CC(C#N)=C2N)cc1,27.8
2,Cc1ccc(NC(=O)/C(=C\c2ccccc2)NC(=O)c2ccco2)cc1,-13
3,O=C(O)c1ccc2c(=O)n3c(nc2c1)/C(=C/c1ccc(C(F)(F)F)cc1)CC3,11.6
4,O=C(NCCN1CCCC1)c1ccc2c(c1)N(Cc1cccc(Cl)c1)C(=O)c1ccccc1S2(=O)=O,-20.7
5,CCNC(=S)NNC(=S)NCc1ccccc1,13
6,CC(C)(C)c1[nH]ncc1[N+](=O)[O-],13.8
7,CCOC(=O)C1CCN(S(=O)(=O)c2ccc(-c3ccccn3)s2)CC1,-5.46
8,Cn1c(COc2ccc(Cl)cc2)nnc1SCC(=O)NC1CCCCC1,-2.02
9,COCCn1nnnc1C(c1cccs1)N1CCN(c2nc3ccccc3s2)CC1 (centres unmarked),-25.3
10,Cc1cccc(N(CC(=O)Nc2ccccc2F)S(C)(=O)=O)c1,0.848
11,Cc1nc(N)sc1-c1csc(Nc2ccc(Cl)cn2)n1,3.85
12,Fc1ccccc1/C=N/n1cnnc1,22.9
13,CCCCOc1ccccc1C1C(C(=O)OC)=C(C)N(C)C(C)=C1C(=O)OC,-3.3
14,COc1ccc(CC(=O)Nc2nc(C(C)(C)C)cs2)cc1,-1.81
15,CC(=O)Nc1ccc(OCC(=O)NC(C)C(C)C)cc1 (centres unmarked),12.6
16,COc1cc(/C=N\NC(=O)c2ccc(-c3ccccc3)cc2)ccc1OCC(N)=O,19.6
17,COc1cc(N(C(=O)Cc2cccs2)C(C(=O)NC2CCCCC2)c2ccc(C)cc2)ccc1-n1cnnn1 (centres unmarked),7.08
18,COc1ccc(N(CC(=O)N2CCOCC2)S(C)(=O)=O)c(OC)c1,10.8
19,CCN1CCN(C(=S)NCc2ccc(C)cc2)CC1,-7.93
20,O=C(Nc1ccc2c(c1)oc1ccccc12)c1ccc2c(c1)OCO2,15.1
